This is one part of the list. The energies were worked out here from pooled read counts, against the library average; single values are noisy.
These sequences were tested against T1, Pho4 (S. cerevisiae) (UniProt P07270) (assay: relative binding free energy (BET-seq); higher = weaker binding). Details: reference: library average.
T1 sequence: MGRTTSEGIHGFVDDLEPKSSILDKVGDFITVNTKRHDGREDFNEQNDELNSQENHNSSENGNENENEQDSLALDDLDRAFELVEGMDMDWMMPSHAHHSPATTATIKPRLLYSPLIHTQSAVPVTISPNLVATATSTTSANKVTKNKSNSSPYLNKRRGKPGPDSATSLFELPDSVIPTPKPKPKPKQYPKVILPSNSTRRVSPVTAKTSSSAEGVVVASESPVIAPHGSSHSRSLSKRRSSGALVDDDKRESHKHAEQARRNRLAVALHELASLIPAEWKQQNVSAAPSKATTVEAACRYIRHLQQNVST

Sequence | relative binding free energy
GGGTCCACGTGTTTGT | 0.07 kcal/mol
TTACTCACGTGGAGGT | -0.02 kcal/mol
AGAGTCACGTGGATAG | -0.01 kcal/mol
GGATGCACGTGGGGCG | -0.2 kcal/mol
GTGTTCACGTGGGTAG | 0.19 kcal/mol
AGTATCACGTGAGTGG | 0.32 kcal/mol
TTAGTCACGTGACGGA | 0.04 kcal/mol
GGTTTCACGTGATTGC | 0.52 kcal/mol
TTAAGCACGTGAGTCG | 0.21 kcal/mol
GAGGACACGTGGGGCG | -0.06 kcal/mol
ATATTCACGTGGGTCT | 0.12 kcal/mol
GTTATCACGTGAGTTA | 0.29 kcal/mol
TTGCACACGTGTTTTT | 0.12 kcal/mol
TAGTGCACGTGTGATT | 0.09 kcal/mol
GTGGGCACGTGCCTGG | -0.14 kcal/mol
TAGGCCACGTGCGGTG | -0.2 kcal/mol
AAAGGCACGTGTGGCG | 0 kcal/mol
TTGGGCACGTGATGAC | 0.1 kcal/mol
GCTTACACGTGGGTTT | 0.13 kcal/mol
GGTAACACGTGTGAGG | -0.01 kcal/mol
CTTGGCACGTGTCTTG | -0.1 kcal/mol
TCTTTCACGTGGATTT | 0.28 kcal/mol
TTGGGCACGTGCGTAC | -0.14 kcal/mol

Sequence | relative binding free energy
GCGTGCACGTGAGAGG | 0.17 kcal/mol
TTGTGCACGTGTGAGT | 0.11 kcal/mol
AGGTGCACGTGACATA | 0.23 kcal/mol
GGATGCACGTGATCTT | 0.23 kcal/mol
GGGGGCACGTGTGAAG | 0.01 kcal/mol
TTGCACACGTGGGATT | -0.04 kcal/mol
GGGGGCACGTGATCAG | -0.11 kcal/mol
TGTCGCACGTGACTTT | 0.21 kcal/mol
AGTAGCACGTGTGTAT | -0.08 kcal/mol
ATGGACACGTGGTGAA | 0.06 kcal/mol
GTGATCACGTGTGGTA | 0.07 kcal/mol
AGGGGCACGTGTGGGA | -0.1 kcal/mol
ATTTACACGTGTTGAA | 0.06 kcal/mol
TGCAGCACGTGTTTGG | -0.03 kcal/mol
TGTGTCACGTGCTAGC | 0.02 kcal/mol
ATAGTCACGTGGAATG | 0.06 kcal/mol
TATTGCACGTGGCATT | -0.07 kcal/mol
GTGTCCACGTGAGATT | 0.34 kcal/mol
GAAGGCACGTGTTATA | -0.03 kcal/mol
GGGATCACGTGTTGTG | 0.17 kcal/mol
AGACTCACGTGTGTTG | 0.23 kcal/mol
TGGTACACGTGAGGCG | 0.22 kcal/mol
TGAAACACGTGGAGGA | 0.11 kcal/mol

Sequence | relative binding free energy
CGAATCACGTGGGCGG | 0.09 kcal/mol
TCTTGCACGTGAAGTG | 0.25 kcal/mol
GGGCACACGTGGATGT | 0.11 kcal/mol
TTGTCCACGTGTCTGT | 0.21 kcal/mol
GGTAACACGTGGCGGC | -0.03 kcal/mol
TAGAGCACGTGAGTAT | 0.15 kcal/mol
TTGGTCACGTGGGAAT | 0.09 kcal/mol
CTAAGCACGTGGTGGT | -0.08 kcal/mol
GTGAACACGTGGTAAT | -0.03 kcal/mol
GGAGTCACGTGGTGGA | 0.11 kcal/mol
TTCGTCACGTGGAGGG | -0.01 kcal/mol
ACTGCCACGTGTGGTG | -0.05 kcal/mol
AAGTGCACGTGTTTTC | 0.06 kcal/mol
GTTTTCACGTGAGTTT | 0.44 kcal/mol
GATGGCACGTGGTCGT | -0.03 kcal/mol
GAATGCACGTGCGTTT | 0.09 kcal/mol
TCTGACACGTGGGGAG | -0.1 kcal/mol
GGGGCCACGTGGGGCG | -0.21 kcal/mol
TTCTTCACGTGTGAGT | 0.26 kcal/mol
AGTGTCACGTGGGGTA | -0.02 kcal/mol
AGATGCACGTGATTGT | 0.06 kcal/mol
TAGGACACGTGGGTTA | -0.04 kcal/mol
ACTGTCACGTGTATTG | 0.04 kcal/mol

Sequence | relative binding free energy
GTAATCACGTGCTTGT | 0.21 kcal/mol
TGAGACACGTGGGGAC | 0 kcal/mol
GTAATCACGTGTATTT | 0.21 kcal/mol
ACGGGCACGTGATGTG | 0.07 kcal/mol
TAAGTCACGTGCGATG | 0.11 kcal/mol
TTTGGCACGTGTTGTA | -0.06 kcal/mol
ACTGTCACGTGGTGTG | 0.02 kcal/mol
GATTACACGTGTGTGC | 0.25 kcal/mol
TCGCTCACGTGTGGTG | 0.26 kcal/mol
TGTAGCACGTGAGAGG | 0.22 kcal/mol
TGCTTCACGTGTGTAA | 0.23 kcal/mol
GGATGCACGTGGCGTG | -0.05 kcal/mol
ATTATCACGTGCATTT | 0.1 kcal/mol
CAGATCACGTGGGAGG | 0.05 kcal/mol
GGGATCACGTGTATTA | 0.05 kcal/mol
ATTATCACGTGAGGTA | 0.31 kcal/mol
TTTATCACGTGTATGT | 0.15 kcal/mol
AGGAGCACGTGGGAGG | -0.28 kcal/mol
GTCATCACGTGGCAGG | 0.21 kcal/mol
TTAGGCACGTGTTCGA | -0.21 kcal/mol
TTAAGCACGTGGAGGG | -0.15 kcal/mol
TCGTTCACGTGACGTG | 0.24 kcal/mol
GAGAGCACGTGTGTAG | -0.12 kcal/mol

Sequence | relative binding free energy
GGGCTCACGTGAGGGA | 0.51 kcal/mol
GTTGTCACGTGACGCG | 0.22 kcal/mol
GTAGACACGTGTCGGG | -0.02 kcal/mol
GTTAGCACGTGATTAG | 0.02 kcal/mol
GCGGTCACGTGTTGGG | 0.17 kcal/mol
GTTTGCACGTGTTGCC | 0.04 kcal/mol
TAGGTCACGTGGTGAA | 0.02 kcal/mol
TCATCCACGTGGGTGT | -0.15 kcal/mol
CTGGTCACGTGTGGAA | 0.12 kcal/mol
AGGGACACGTGTGGTT | 0.1 kcal/mol
GTGAGCACGTGGACGG | -0.13 kcal/mol
ATAGTCACGTGCGGTC | 0.24 kcal/mol
TTGTGCACGTGGCCGA | -0.1 kcal/mol
GTGGACACGTGGTCTG | -0.13 kcal/mol
CTTGACACGTGTGGGT | -0.09 kcal/mol
GTTCACACGTGTATTG | 0.09 kcal/mol
ATTCTCACGTGGTATG | 0.28 kcal/mol
GGGCGCACGTGTGGAG | 0.03 kcal/mol
CGGTTCACGTGTGGGG | 0.31 kcal/mol
CAGATCACGTGTGGTG | 0.1 kcal/mol
TGTGGCACGTGCTGGA | -0.13 kcal/mol
GGATACACGTGGGTTG | 0.02 kcal/mol
CGAGTCACGTGAGTGG | 0.3 kcal/mol

— the BET-seq Pho4 binding data (Le et al. 2018)
